Reference: the supplement of paper PMC8728848
The list shows a part of the results.

Columns and labels:
Test in all cases: glycan array binding signal (z-score within array); higher = stronger binding
Conditions in all cases: glycan notation: IUPAC condensed, linker removed
[1] = target: Fuc(a1-2)[GalNAc(b1-3)]Gal
Method in brief: (§1)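 Arrays were curated from the Consortium for Functional Glycomics database, 3228 in total, and kept only where the protein sequence was available. Binding is expressed as a within-array Z-score. This score was averaged across arrays of the same protein sequence at different concentrations or buffers and across linkers, and negative values can be read as non-binding.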

Fuc(a1-3)GlcNAc = target: Fuc(a1-3)GlcNAc
Method in brief: as §1

[2] = target: Fuc(a1-3)[Gal(b1-4)]Glc6S
Method in brief: as §1

[3] = target: Fuc(a1-3)[Gal(b1-4)]GlcNAc
Method in brief: as §1

[4] = target: Fuc(a1-3)[Gal(b1-4)]GlcNAc(b1-2)Man
Method in brief: as §1

[5] = target: Fuc(a1-3)[Gal(b1-4)]GlcNAc(b1-2)Man(a1-3)[Fuc(a1-3)[Gal(b1-4)]GlcNAc(b1-2)Man(a1-6)]Man(b1-4)GlcNAc(b1-4)GlcNAc
Method in brief: as §1

[6] = target: Fuc(a1-3)[Gal(b1-4)]GlcNAc(b1-2)Man(a1-3)[Fuc(a1-3)[Gal(b1-4)]GlcNAc(b1-2)Man(a1-6)]Man(b1-4)GlcNAc(b1-4)[Fuc(a1-6)]GlcNAc
Method in brief: as §1

[7] = target: Fuc(a1-3)[Gal(b1-4)]GlcNAc(b1-3)Gal(b1-3)[Fuc(a1-4)]GlcNAc
Method in brief: as §1

[8] = target: Fuc(a1-3)[Gal(b1-4)]GlcNAc(b1-3)Gal(b1-4)[Fuc(a1-3)]GlcNAc
Method in brief: as §1

[9] = target: Fuc(a1-3)[Gal(b1-4)]GlcNAc(b1-3)Gal(b1-4)[Fuc(a1-3)]GlcNAc(b1-3)Gal(b1-4)[Fuc(a1-3)]GlcNAc
Method in brief: as §1

[10] = target: Fuc(a1-3)[Gal(b1-4)]GlcNAc(b1-3)GalNAc
Method in brief: as §1

[11] = target: Fuc(a1-3)[Gal(b1-4)]GlcNAc(b1-6)GalNAc
Method in brief: as §1

[12] = target: Fuc(a1-3)[Gal(b1-4)]GlcNAc(b1-6)[Gal(b1-3)GlcNAc(b1-3)]Gal(b1-4)Glc
Method in brief: as §1

[13] = target: Fuc(a1-3)[Gal(b1-4)]GlcNAc6S
Method in brief: as §1

[14] = target: Fuc(a1-3)[Gal3S(b1-4)]Glc
Method in brief: as §1

[15] = target: Fuc(a1-3)[Gal3S(b1-4)]GlcNAc
Method in brief: as §1

[16] = target: Fuc(a1-3)[Gal3S(b1-4)]GlcNAc6S
Method in brief: as §1

[17] = target: Fuc(a1-3)[GalNAc(b1-4)]GlcNAc
Method in brief: as §1

[18] = target: Fuc(a1-3)[GalNAc(b1-4)]GlcNAc6S
Method in brief: as §1

Fuc(a1-4)GlcNAc = target: Fuc(a1-4)GlcNAc
Method in brief: as §1

Fuc(b1-3)GlcNAc = target: Fuc(b1-3)GlcNAc
Method in brief: as §1

Gal(a1-2)Gal = target: Gal(a1-2)Gal
Method in brief: as §1

Gal(a1-3)Gal = target: Gal(a1-3)Gal
Method in brief: as §1

Gal(a1-3)Gal(b1-3)GlcNAc = target: Gal(a1-3)Gal(b1-3)GlcNAc
Method in brief: as §1

[19] = target: Gal(a1-3)Gal(b1-3)GlcNAc(b1-2)Man
Method in brief: as §1

[20] = target: Gal(a1-3)Gal(b1-3)GlcNAc(b1-2)Man(a1-3)[Gal(a1-3)Gal(b1-3)GlcNAc(b1-2)Man(a1-6)]Man(b1-4)GlcNAc(b1-4)GlcNAc
Method in brief: as §1

[21] = target: Gal(a1-3)Gal(b1-3)GlcNAc(b1-3)GalNAc
Method in brief: as §1

[22] = target: Gal(a1-3)Gal(b1-3)GlcNAc(b1-6)GalNAc
Method in brief: as §1

[23] = target: Gal(a1-3)Gal(b1-3)[Fuc(a1-4)]GlcNAc(b1-2)Man(a1-3)[Gal(a1-3)Gal(b1-3)[Fuc(a1-4)]GlcNAc(b1-2)Man(a1-6)]Man(b1-4)GlcNAc(b1-4)GlcNAc
Method in brief: as §1

Gal(a1-3)Gal(b1-4)Glc = target: Gal(a1-3)Gal(b1-4)Glc
Method in brief: as §1

Gal(a1-3)Gal(b1-4)GlcNAc = target: Gal(a1-3)Gal(b1-4)GlcNAc
Method in brief: as §1

[24] = target: Gal(a1-3)Gal(b1-4)GlcNAc(b1-2)Man
Method in brief: as §1

[25] = target: Gal(a1-3)Gal(b1-4)GlcNAc(b1-2)Man(a1-3)[Gal(a1-3)Gal(b1-4)GlcNAc(b1-2)Man(a1-6)]Man(b1-4)GlcNAc(b1-4)GlcNAc
Method in brief: as §1

[26] = target: Gal(a1-3)Gal(b1-4)GlcNAc(b1-3)GalNAc
Method in brief: as §1

[27] = target: Gal(a1-3)Gal(b1-4)GlcNAc(b1-6)GalNAc
Method in brief: as §1

[28] = target: Gal(a1-3)Gal(b1-4)[Fuc(a1-3)]GlcNAc
Method in brief: as §1

[29] = target: Gal(a1-3)Gal(b1-4)[Fuc(a1-3)]GlcNAc(b1-2)Man(a1-3)[Gal(a1-3)Gal(b1-4)[Fuc(a1-3)]GlcNAc(b1-2)Man(a1-6)]Man(b1-4)GlcNAc(b1-4)GlcNAc
Method in brief: as §1

Gal(a1-3)GalNAc = target: Gal(a1-3)GalNAc
Method in brief: as §1

[30] = target: Gal(a1-3)[Gal(a1-4)]Gal(b1-4)GlcNAc
Method in brief: as §1

[31] = target: Gal(a1-4)Gal(b1-3)GlcNAc(b1-2)Man(a1-3)[Gal(a1-4)Gal(b1-3)GlcNAc(b1-2)Man(a1-6)]Man(b1-4)GlcNAc(b1-4)GlcNAc
Method in brief: as §1

Gal(a1-4)Gal(b1-4)Glc = target: Gal(a1-4)Gal(b1-4)Glc
Method in brief: as §1

Gal(a1-4)Gal(b1-4)GlcNAc = target: Gal(a1-4)Gal(b1-4)GlcNAc
Method in brief: as §1

[32] = target: Gal(a1-4)Gal(b1-4)GlcNAc(b1-2)Man(a1-3)[Gal(a1-4)Gal(b1-4)GlcNAc(b1-2)Man(a1-6)]Man(b1-4)GlcNAc(b1-4)GlcNAc
Method in brief: as §1

[33] = target: Gal(a1-4)Gal(b1-4)GlcNAc(b1-3)Gal(b1-4)Glc
Method in brief: as §1

Gal(a1-4)GlcNAc = target: Gal(a1-4)GlcNAc
Method in brief: as §1

B1: CAA (Caragana arborescens) (protein)
chain: VAVEFDTFDNPDWDPRTKHIGIDVNSIRSNKTTQWGFWNRQVADVDISYEASSKTLNVSLYYPGESYIVTDVVDLKDILPEWVRIGF
glycan array binding signal (z-score) [1]: -0.245
glycan array binding signal (z-score) (Fuc(a1-3)GlcNAc): -0.241
glycan array binding signal (z-score) [2]: -0.224
glycan array binding signal (z-score) [3]: -0.237
glycan array binding signal (z-score) [4]: -0.237
glycan array binding signal (z-score) [5]: 1.41
glycan array binding signal (z-score) [6]: -0.226
glycan array binding signal (z-score) [7]: -0.23
glycan array binding signal (z-score) [8]: -0.24
glycan array binding signal (z-score) [9]: -0.242
glycan array binding signal (z-score) [10]: -0.236
glycan array binding signal (z-score) [11]: -0.244
glycan array binding signal (z-score) [12]: -0.254
glycan array binding signal (z-score) [13]: -0.238
glycan array binding signal (z-score) [14]: -0.24
glycan array binding signal (z-score) [15]: -0.229
glycan array binding signal (z-score) [16]: -0.24
glycan array binding signal (z-score) [17]: -0.238
glycan array binding signal (z-score) [18]: -0.25
glycan array binding signal (z-score) (Fuc(a1-4)GlcNAc): -0.239
glycan array binding signal (z-score) (Fuc(b1-3)GlcNAc): -0.241
glycan array binding signal (z-score) (Gal(a1-2)Gal): -0.244
glycan array binding signal (z-score) (Gal(a1-3)Gal): -0.238
glycan array binding signal (z-score) (Gal(a1-3)Gal(b1-3)GlcNAc): -0.242
glycan array binding signal (z-score) [19]: -0.245
glycan array binding signal (z-score) [20]: 0.745
glycan array binding signal (z-score) [21]: -0.241
glycan array binding signal (z-score) [22]: -0.254
glycan array binding signal (z-score) [23]: 0.701
glycan array binding signal (z-score) (Gal(a1-3)Gal(b1-4)Glc): -0.246
glycan array binding signal (z-score) (Gal(a1-3)Gal(b1-4)GlcNAc): -0.238
glycan array binding signal (z-score) [24]: -0.241
glycan array binding signal (z-score) [25]: 0.634
glycan array binding signal (z-score) [26]: -0.243
glycan array binding signal (z-score) [27]: -0.238
glycan array binding signal (z-score) [28]: -0.236
glycan array binding signal (z-score) [29]: -0.102
glycan array binding signal (z-score) (Gal(a1-3)GalNAc): -0.242
glycan array binding signal (z-score) [30]: -0.248
glycan array binding signal (z-score) [31]: 2.52
glycan array binding signal (z-score) (Gal(a1-4)Gal(b1-4)Glc): -0.225
glycan array binding signal (z-score) (Gal(a1-4)Gal(b1-4)GlcNAc): -0.233
glycan array binding signal (z-score) [32]: -0.234
glycan array binding signal (z-score) [33]: -0.234
glycan array binding signal (z-score) (Gal(a1-4)GlcNAc): -0.241
